Drawing on PubChem BioAssay AID1240 (Sanford-Burnham Center for Chemical Genomics, 2008), this text covers displacement for 106 compounds.

SMILES strings stand for the structures. In all, about 50,000 compounds went through this assay and about 800 (1.6%) showed an effect of 50% or more. The list shows a part of the results.

The assay deals with Bcl-2-like protein 10 (Homo sapiens) (UniProt Q9HD36). Nature of the assay: TR3 peptide-Bcl-B binding displacers, biochemical primary FP assay, phenotype converters (AID 1240).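 Further: 0% = Bcl-B with tracer peptide and DMSO and 100% = tracer peptide lacking Bcl-B.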 The settings on record: GST-Bcl-B / FITC-TR3 peptide fluorescence polarization; stronger effect = higher value; compound at 3.75 mg/L. For orientation: In fluorescence polarisation assays a small probe gives low polarisation when free and higher when bound to something large.
Chain of UniProt Q9HD36 (Q9HD36 whole entry, looked up): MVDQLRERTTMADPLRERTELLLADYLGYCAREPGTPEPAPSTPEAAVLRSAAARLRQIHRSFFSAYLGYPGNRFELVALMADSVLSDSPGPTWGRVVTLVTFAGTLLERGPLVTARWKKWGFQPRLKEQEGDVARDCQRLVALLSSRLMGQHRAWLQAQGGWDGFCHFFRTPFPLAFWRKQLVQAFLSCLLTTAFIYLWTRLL
With `O=C1/C(=C\c2ccc(OS(=O)(=O)c3ccccc3[N+](=O)[O-])cc2)SC(=S)N1c1ccccc1`, the displacement is -3.6%. To `CCOC(=O)C1=C(C)N=c2s/c(=C\c3ccc(O)c(OC)c3)c(=O)n2C1c1ccc(OC)cc1` (stereo unspecified) belongs 4.2%.

As for `Cc1ccc(C(=O)Nc2c(C)ccc3nsnc23)cc1`, the displacement is 0.3%. On to `COc1ccc(CN2CCN(C3CCN(Cc4ccccc4)CC3)CC2)cc1Br`, for which the displacement is -9.1%.

For `O=C1c2cc(Cl)c(Cl)cc2C(=O)N1c1cccc(O)c1`, the displacement is 2.7%.

Take `Cc1ccc(/C(O)=C2/C(=O)C(=O)N(CCCn3ccnc3)C2c2ccccc2)cc1` (stereo unspecified): the displacement turned out to be 7.9%. To `Cc1c(C(=O)N(Cc2ccccc2)c2ccccn2)cccc1[N+](=O)[O-]` belongs -11.6%; to `CCOc1cc(C(=O)NCCc2cccc(Cl)c2)cc(OCC)c1OCC`, -2.2%. For the compound `O=C(CSc1ncn[nH]1)NCCOc1ccccc1`, the displacement turned out to be 5.2%. To `COc1cc(OC)cc(C(=O)Nc2ccc(O)c(-c3nc4ccccc4o3)c2)c1` belongs -5.4%. To `CCN1C(=O)CC(N2CCC(Cc3ccccc3)CC2)C1=O` (stereo unspecified) belongs 4.8%; to `CCc1c(C)nc2cc(-c3ccccc3)[nH]n2c1=O`, -9.9%. To `O=C(Nc1ccc(I)cc1)c1ccc(CN2CCOCC2)cc1` belongs 4.9%; to `COc1ccc(N(CC(=O)Nc2cccc(Cl)c2)S(=O)(=O)c2ccc(OC)c(OC)c2)cc1`, 11.1%.

With `NS(=O)(=O)c1ccc(CNC2CC(=O)N(c3ccccc3)C2=O)cc1` (stereo unspecified), the displacement amounted to 9.8%.

As to `CN1CCN(C(=O)/C=C/c2ccc(Cl)cc2)CC1`, the displacement stood at 8.2%.

As for `Clc1ccc(Sc2ccc(/C=N/n3cnnc3)o2)cc1`, the displacement worked out at 1.8%.

Take `O=C(O)c1ccc(-c2ccc([N+](=O)[O-])cc2Cl)o1`: the displacement was -7.7%.

Take `O=C(Nc1ccccc1C(=O)N1CCCCCC1)c1ccc(Cl)cc1`: the displacement was found to be 4.5%.

Consider `COc1ccc(C2=NN(C(=O)CCC(=O)O)C(c3ccc(F)cc3)C2)cc1` (stereo unspecified), for which the displacement is -15%. For the compound `OCc1ccc(-c2cccc(Cl)c2)o1`, the displacement came to 10%. To `COc1ccc(-c2nn(-c3ccccc3)cc2/C=C/C(=O)c2ccccc2)cc1` belongs 5.2%; to `COc1cc(C=O)c(Br)cc1OCc1ccc(C)cc1`, 0.4%; to `COc1ccc(-c2cc(C(=O)NCCc3ccccc3)c3ccccc3n2)c(OC)c1`, -5.9%.

Regarding `Cc1ccc(N2C(=O)CC(NCCc3ccc(Cl)cc3)C2=O)cc1` (stereo unspecified), the displacement worked out at 0.7%.

Consider `Cc1cc(C)c(OCC(=O)Nc2ccc(F)cc2)c(C)c1`, for which the displacement was 9.9%. To `CC(=O)N1N=C(c2ccccc2)CC1c1ccc([N+](=O)[O-])cc1` (stereo unspecified) belongs 10.8%. On to `CC(C)OC(=O)COc1ccc2c3c(c(=O)oc2c1)CCCC3`, for which the displacement was -2.6%. To `COc1ccc(C2Nc3ccccc3C(=O)N2Cc2ccccc2)cc1` (stereo unspecified) belongs 17.4%; to `CC(C)CN1C(=O)/C(=C/c2ccc(Cl)c(Cl)c2)SC1=S`, 14.7%; to `CCC12CC3CC(C1)CC(C(=O)NNC(N)=O)(C3)C2`, -4%. To `COc1c(Cl)cc(C(=O)Nc2cccc3ccccc23)cc1Cl` belongs 12.1%. To `O=C(NC(=S)Nc1ccc2oc(-c3cccc(I)c3)nc2c1)c1ccco1` belongs 2.4%. As to `COc1ccc(-n2nc3cc(C)c(NC(=O)c4ccccc4[N+](=O)[O-])cc3n2)cc1`, the displacement worked out at 2.9%. To `O=C(NN=C1c2ccccc2-c2ccccc21)c1ccccn1` belongs 0.8%; to `O=C(Nc1ccc(F)cc1)N1CCN(C(=O)c2ccco2)CC1`, -6.1%. Regarding `COc1ccccc1C(=O)N/C(=C/c1ccc(Br)cc1)C(=O)N1CCCC1`, the displacement was 0.8%. To `CCOC(=O)c1c(N)nc(C)n1-c1ccc(OC)cc1` belongs 13.5%.

Turning to `O=C(c1ccc(S(=O)(=O)c2ccc(Cl)cc2)cc1)c1ccc(S(=O)(=O)c2ccc(Cl)cc2)cc1`, the displacement is -2.1%. To `COc1ccc(/C=C2/SC(=S)N(CC(=O)Nc3ccc(F)c(Cl)c3)C2=O)cc1OC` belongs 17.9%; to `CCOc1cc(C=O)ccc1OCCOc1ccc([N+](=O)[O-])cc1`, 14.7%; to `O=C(COc1ccc(Cl)cc1)NNC(=O)C1CCCCC1`, -19.1%. In the case of `COc1ccc(C2/C(=C(/O)c3ccccc3)C(=O)C(=O)N2c2cccc([N+](=O)[O-])c2)cc1` (stereo unspecified), the displacement was -6.9%. To `Cc1ccc(/C=C2\SC(=S)N(CCS(=O)(=O)O)C2=O)cc1` belongs -1.7%; to `O=C(c1ccccc1Br)N1CCN(c2cc(N3CCCC3)c(F)cc2[N+](=O)[O-])CC1`, 3%. Take `CCOC(=O)C1=C(O)/C(=C/c2cccc(OC)c2)SC1=Nc1ccccc1`: the displacement was -32%. For the compound `COC(=O)c1ccc(C(=O)OC)c(NC(=O)CC(c2ccccc2)c2ccccc2)c1`, the displacement came to 63.5%. For the compound `COc1ccc(-n2c(=O)c3c4c(sc3n3c(=S)[nH]nc23)COC(C)(C)C4)cc1`, the displacement was -6.8%. To `CCOC(=O)C1CCN(C(=O)C(c2ccccc2)c2ccccc2)CC1` belongs 9.6%. To `CCn1c2ccccc2c2cc(C3C(C(=O)OCC4CCCO4)=C(C)NC4=C3C(=O)CCC4)ccc21` (stereo unspecified) belongs -14%; to `COc1ccc(/C(O)=C2/C(=O)C(=O)N(CCCCCC(=O)O)C2c2ccccc2)cc1` (stereo unspecified), -0.1%; to `O=C(/C=C/c1ccccc1)C1=C(O)C(=O)N(c2cccc(C(F)(F)F)c2)C1c1ccccc1[N+](=O)[O-]` (stereo unspecified), -5%. `Cc1ccc(C(=O)Nc2ccc3nn(-c4ccc(Cl)cc4)nc3c2)cc1[N+](=O)[O-]`: the displacement turned out to be 10.6%. For the compound `COc1ccc(C(=O)/C=C/Nc2ccccc2I)cc1OC`, the displacement is 13.2%. On to `Cc1ccc(S(=O)(=O)Nc2cccc([N+](=O)[O-])c2)cc1`, for which the displacement was -6.7%.

With `COc1ccc(/C=C/C(=O)c2ccc(S(=O)(=O)NCc3cccnc3)cc2)cc1`, the displacement is 10.3%. As to `CCc1ccc(OCc2nnc(N)s2)cc1`, the displacement turned out to be 6%. To `CSC1=C(C#N)C2(CCCCC2)C(C#N)C(=O)N1` (stereo unspecified) belongs 2.3%; to `Cc1[nH]oc(=O)c1N=Nc1ccc([N+](=O)[O-])cc1`, 4.7%. On to `CC1(C)CC(NC(=S)Nc2cccc(Cl)c2)CC(C)(C)N1`, for which the displacement was -3.3%.

Turning to `CC(=O)Nc1ccc(S(=O)(=O)N/N=C/c2cccnc2)cc1`, the displacement is -9.4%. Consider `CCNC(=S)NCCN1CCCCC1`, for which the displacement was -4.6%.

Regarding `O=C(NCCN1CCCC1=O)Nc1ccccc1`, the displacement was 10.9%. Take `CSCCC1NC(=S)N(c2ccccc2)C1=O` (stereo unspecified): the displacement amounted to 4.4%. To `O=C(CSc1nc2ccccc2o1)Nc1ccc(/C=C/c2ccccc2)cc1` belongs 4%. To `COc1ccc(CN2CCN(Cc3cc(OC)c(OC)cc3OC)CC2)c(OC)c1` belongs -2.4%; to `O=C(Nc1ccc2oc(-c3ccc(F)cc3Cl)nc2c1)c1ccco1`, 1.8%. To `O=C(Cc1ccccc1)Nc1cccc(NC(=O)c2cccc(Cl)c2)c1` belongs 11.8%; to `COc1cccc(C2=NN(C(=O)c3cccc([N+](=O)[O-])c3)C(O)(C(F)(F)F)C2)c1` (stereo unspecified), -1.1%. With `O=C(NCc1ccc2c(c1)OCO2)C1CC(=O)N(c2ccccc2)C1` (stereo unspecified), the displacement was -1.8%. `COC(=O)c1ccc(N/C=C/C(=O)c2ccccc2)cc1`: the displacement is 11.1%. To `O=[N+]([O-])c1cccc(N=Cc2nc(-c3ccccc3)oc2O)c1` belongs -6.8%; to `CCc1ccc(S(=O)(=O)NNc2ccccc2)cc1`, 0.5%; to `O=C1c2ccccc2C(=O)c2c(NCCO)ccc(NCCO)c21`, 46.4%. To `O=C(Oc1ccc(-c2nc3ccccc3[nH]2)cc1)c1ccc(Cl)cc1` belongs 13.6%; to `Cc1ccc(Cl)cc1N(Cc1ccc(C(=O)Nc2cccnc2)cc1)S(=O)(=O)c1ccccc1`, -3.4%; to `CCCOC(=O)C1=C(C)NC2=C(C(=O)CC(C)(C)C2)C1c1ccc(Cl)c([N+](=O)[O-])c1` (stereo unspecified), -8.4%. To `CC(C)CCNS(=O)(=O)c1ccc(Cl)cc1` belongs 10.6%; to `Cc1cc(C)c2oc(-c3ccc(C)c(NC(=O)c4ccc([N+](=O)[O-])cc4Cl)c3)nc2c1`, 2.5%; to `O=C(COc1ccc(Cl)cc1Br)NCCCN1CCOCC1`, -7.4%. For `COc1ccc(N2C(=O)NC(=O)/C(=C/c3ccc(I)o3)C2=O)cc1`, the displacement was found to be 3.6%.

For the compound `O=c1oc2cc(OCc3ccc([N+](=O)[O-])cc3)ccc2c2c1CCCC2`, the displacement is -3.3%.

Turning to `Cc1ccc(OCCCN2CCOCC2)cc1`, the displacement came out at 16.9%. Take `CC(O)CP(=O)(c1ccccc1)c1ccccc1` (stereo unspecified): the displacement is 3.3%. To `CC1CCN(C(=O)c2ccc(S(=O)(=O)N3CCOCC3)cc2)CC1` belongs 8%; to `CC(=O)NC1=NC(=O)/C(=C\c2ccc(-c3ccc(C)c([N+](=O)[O-])c3)o2)S1`, -0.4%.

With `Cn1ccnc1Sc1ccc(C2Nc3ccc4ccccc4c3C3=C2C(=O)CC(C)(C)C3)cc1[N+](=O)[O-]` (stereo unspecified), the displacement is 2.1%. As for `COc1ccc(C2C3COC(C)(C)CC3=NN2C(C)=O)cc1` (stereo unspecified), the displacement was determined as 1.1%. Regarding `O=C(O)c1ccc(C(=O)NCc2ccccc2)c(C(=O)O)c1`, the displacement turned out to be 12.8%. To `CCOCCOC(=O)c1ccc(NC(=O)c2cccc(Cl)c2)cc1` belongs -5.4%; to `Cn1c(N/N=C\c2ccc(Cl)cc2Cl)cc(=O)n(C)c1=O`, -4.6%. To `Cc1nc(Nc2nc(O)cc(=O)[nH]2)nc2c(C)cccc12` belongs 32.3%; to `COc1cccc(/C=C(\C#N)C(=O)Nc2ccc(C)c(Cl)c2)c1O`, -11.9%. To `Cc1ccn2c(C(=O)N/N=C\c3ccccc3[N+](=O)[O-])c(C)nc2c1` belongs 5.2%; to `CCCOc1ccccc1NC(=O)CC1Sc2ccc(C(F)(F)F)cc2NC1=O` (stereo unspecified), 7.9%; to `CC(=O)c1cccc(-c2ccc(/C=C3\C(=O)NC(=O)C(C#N)=C3C)o2)c1`, 20.8%. On to `CCN1C(=O)/C(=C\c2cccc(OS(=O)(=O)c3ccc(C)cc3)c2)SC1=S`, for which the displacement was -7.4%.

Consider `CCN(CC)S(=O)(=O)c1cc(C(=O)OCc2ccccc2)ccc1Br`, for which the displacement is -8.7%. For the compound `COc1ccccc1N1CCN(/N=C\c2ccccc2OCC(=O)O)CC1`, the displacement was -2.4%. To `COc1ccccc1CNCc1ccc([N+](=O)[O-])cc1` belongs 2%; to `O=C(Nc1ccc(I)cc1Cl)c1ccc(-c2cccc(Cl)c2)o1`, 14.6%. To `COc1ccc(-c2cc(C(=O)Nc3cccc(C)c3)c3ccccc3n2)cc1` belongs -13%; to `COc1cc(/C=C2/SC(=S)N(c3ccccc3)C2=O)ccc1OS(=O)(=O)c1ccc(C)cc1`, 9.7%; to `Cc1ccc(C(=O)Nc2cccc(Oc3ccccc3)c2)o1`, -8.5%. To `COc1cccc(C(c2c(C)[nH]n(-c3ccccc3)c2=O)c2c(C)[nH]n(-c3ccccc3)c2=O)c1O` belongs 5.6%.

As for `COc1cc([N+](=O)[O-])ccc1NC(=O)c1ccc(C)c(C)c1`, the displacement came to 6.2%.
